In the supplement of paper PMC10037445:
Values joined by “and” are separate entries in the source; they are usually repeats but may differ in a detail not shown here. Equal values may be shown once. In all, about 2,900 compounds were measured (“IRF Lucia reporter activity, fold change vs agonist alone”: median about 0.9, highest 2% from about 2.8 on). The list shows a part of the results.

Legend:
RAW-Dual [1] = assay: IRF Lucia reporter activity, fold change vs agonist alone; higher = enhanced IRF activity; details: agonist: MPLA (TLR4) […]
Outline: (§1)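 RAW-Dual macrophages were seeded in DMEM at 50,000 cells/well in 384-well plates, given 50 nL of library stock by pin tool, and given a PRR agonist 1 h later. Plates were held at 37 °C, 5% CO2 for 20 hours, after which supernatant was read for IRF by QuantiLuc luminescence and for NF-κB by QuantiBlue absorbance at 620 nm. Reporter activity is expressed as fold change over wells that received agonist alone. A well was called cytotoxic when IncuCyte confluency fell below 70% of agonist controls in both mask sets.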

RAW-Dual [2] = assay: IRF Lucia reporter activity, fold change vs agonist alone; cytotoxicity flag (confluency mask): not cytotoxic; higher = enhanced IRF activity
Outline: as §1

RAW-Dual [3] = assay: IRF Lucia reporter activity, fold change vs agonist alone; cytotoxicity flag (confluency mask): cytotoxic (confluency <70% of control); higher = enhanced IRF activity
Outline: as §1

[4] = library stock concentration (final ~1000-fold dilution): 10 mM, cytotoxicity flag (confluency mask): not cytotoxic
[5] = agonist: 3'3'-cGAMP (STING) 10 ug/mL
[6] = library stock concentration (final ~1000-fold dilution): 10 mM, cytotoxicity flag (confluency mask): cytotoxic (confluency <70% of control)

COc1ccc(-c2coc3cc(O)cc(O)c3c2=O)cc1
IRF Lucia reporter activity (RAW-Dual [1]; [4]): 1.12

COc1ccc(-c2coc3cc(O)cc(O)c3c2=O)cc1 (library stock concentration (final ~1000-fold dilution): 10 mM)
IRF Lucia reporter activity (RAW-Dual [2]; [5]): 1.05
IRF Lucia reporter activity (RAW-Dual [2]; agonist: LPS (TLR4) 0.1 ug/mL): 1.22

CCCCC1=NC2(CCCC2)C(=O)N1Cc1ccc(-c2ccccc2-c2nn[nH]n2)cc1 (library stock concentration (final ~1000-fold dilution): 2 mM)
IRF Lucia reporter activity (RAW-Dual [2]; [5]): 1.07
IRF Lucia reporter activity (RAW-Dual [2]; agonist: LPS (TLR4) 0.1 ug/mL): 1.02

CCCCC1=NC2(CCCC2)C(=O)N1Cc1ccc(-c2ccccc2-c2nn[nH]n2)cc1
IRF Lucia reporter activity (RAW-Dual [1]; library stock concentration (final ~1000-fold dilution): 2 mM, cytotoxicity flag (confluency mask): not cytotoxic): 1.19

CC(C)(C)c1cc(/C=C(\C#N)C(N)=S)cc(C(C)(C)C)c1O (library stock concentration (final ~1000-fold dilution): 10 mM)
IRF Lucia reporter activity (RAW-Dual [3]; [5]): 0.0348
IRF Lucia reporter activity (RAW-Dual [3]; agonist: LPS (TLR4) 0.1 ug/mL): 0.763

CC(C)(C)c1cc(/C=C(\C#N)C(N)=S)cc(C(C)(C)C)c1O
IRF Lucia reporter activity (RAW-Dual [1]; [6]): 0.726

CCCCS(=O)(=O)NC(Cc1ccc(OCCCCC2CCNCC2)cc1)C(=O)O.Cl.O (stereo not drawn) (library stock concentration (final ~1000-fold dilution): 10 mM)
IRF Lucia reporter activity (RAW-Dual [2]; [5]): 0.894
IRF Lucia reporter activity (RAW-Dual [2]; agonist: LPS (TLR4) 0.1 ug/mL): 1.35

CC(C)CC(NC(=O)C(Cc1ccccc1)CC(O)C(Cc1ccccc1)NC(=O)OC(C)(C)C)C(=O)NC(Cc1ccccc1)C(N)=O (stereo not drawn) (library stock concentration (final ~1000-fold dilution): 10 mM)
IRF Lucia reporter activity (RAW-Dual [2]; [5]): 1.1
IRF Lucia reporter activity (RAW-Dual [2]; agonist: LPS (TLR4) 0.1 ug/mL): 1.5

Nc1ccn(C2OC(CO)C(O)C2(F)F)c(=O)n1 (stereo not drawn) (library stock concentration (final ~1000-fold dilution): 10 mM)
IRF Lucia reporter activity (RAW-Dual [3]; [5]): 1.58
IRF Lucia reporter activity (RAW-Dual [3]; agonist: LPS (TLR4) 0.1 ug/mL): 1.43

Nc1ccn(C2OC(CO)C(O)C2(F)F)c(=O)n1 (stereo not drawn)
IRF Lucia reporter activity (RAW-Dual [1]; [6]): 1.3

CC(O)C(=O)O.CN1CCN(c2ccc3nc(-c4c(N)c5c(F)cccc5[nH]c4=O)[nH]c3c2)CC1 (library stock concentration (final ~1000-fold dilution): 10 mM)
IRF Lucia reporter activity (RAW-Dual [3]; [5]): 0.013
IRF Lucia reporter activity (RAW-Dual [3]; agonist: LPS (TLR4) 0.1 ug/mL): 0.026

O=C(NC1CCNCC1)c1n[nH]cc1NC(=O)c1c(Cl)cccc1Cl (library stock concentration (final ~1000-fold dilution): 10 mM)
IRF Lucia reporter activity (RAW-Dual [3]; [5]): 0.432
IRF Lucia reporter activity (RAW-Dual [3]; agonist: LPS (TLR4) 0.1 ug/mL): 0.842

O=C(NC1CCNCC1)c1n[nH]cc1NC(=O)c1c(Cl)cccc1Cl
IRF Lucia reporter activity (RAW-Dual [1]; [6]): 0.317

O=CN1CC/C(=C/c2ccc3c(c2)OCO3)C1=O (library stock concentration (final ~1000-fold dilution): 10 mM)
IRF Lucia reporter activity (RAW-Dual [2]; [5]): 0.61
IRF Lucia reporter activity (RAW-Dual [2]; agonist: LPS (TLR4) 0.1 ug/mL): 0.421

CS(=O)(=O)O.Cc1ccc(NC(=O)c2ccc(CN3CCN(C)CC3)cc2)cc1Nc1nccc(-c2cccnc2)n1
IRF Lucia reporter activity (RAW-Dual [1]; [6]): 0.941

CS(=O)(=O)O.Cc1ccc(NC(=O)c2ccc(CN3CCN(C)CC3)cc2)cc1Nc1nccc(-c2cccnc2)n1 (library stock concentration (final ~1000-fold dilution): 10 mM)
IRF Lucia reporter activity (RAW-Dual [3]; [5]): 0.318
IRF Lucia reporter activity (RAW-Dual [3]; agonist: LPS (TLR4) 0.1 ug/mL): 0.601

CCCCOc1cc(C(=O)NCCN(CC)CC)c2ccccc2n1.Cl
IRF Lucia reporter activity (RAW-Dual [1]; [4]): 1.4

CCCCOc1cc(C(=O)NCCN(CC)CC)c2ccccc2n1.Cl (library stock concentration (final ~1000-fold dilution): 10 mM)
IRF Lucia reporter activity (RAW-Dual [2]; [5]): 1.09
IRF Lucia reporter activity (RAW-Dual [2]; agonist: LPS (TLR4) 0.1 ug/mL): 1.18

CCCC(CCC)C(=O)O (library stock concentration (final ~1000-fold dilution): 10 mM)
IRF Lucia reporter activity (RAW-Dual [2]; [5]): 0.816 and 1.01 and 1.05
IRF Lucia reporter activity (RAW-Dual [2]; agonist: LPS (TLR4) 0.1 ug/mL): 0.941 and 0.866 and 1

CC12CCC(O)CC1=CCC1C2CCC2(C)C(C(O)CC(O)(C(F)(F)F)C(F)(F)F)CCC12 (stereo not drawn) (library stock concentration (final ~1000-fold dilution): 10 mM)
IRF Lucia reporter activity (RAW-Dual [2]; [5]): 1.03
IRF Lucia reporter activity (RAW-Dual [2]; agonist: LPS (TLR4) 0.1 ug/mL): 1.31
